Out of some 320,000 compounds screened, about 9,100 (2.8%) were called active. Inconclusive means that the source gave no clear call. Such entries were picked first, then a sample of the others. The call rests on the fitted dose curve; in most records, active means well fitted activation curve with a large enough effect; inconclusive means small, poorly fitted or top-dose-only effect; inactive means no such curve, though single readings can be large or run the other way. No potency is given beside an inconclusive call; the fits are too rough.
experiment: qHTS Assay for Rab9 Promoter Activators; details: Huh7 Rab9 promoter-luciferase reporter, luminescence, 24 h; series mostly up to 9.22 µM; activation, negative = inhibition: at the top concentration; further: nearly all actives have a fitted effect of over 60% in size; on activation, negative = inhibition: % of control where 0% means no effect
Procedure, shortened: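 Stable Rab9-luc Huh7, 1500 cells/well, 2 h settle; cmpd in DMSO, 24 h, 37 °C/5% CO2; luciferase reagent 10 min RT; luminescence.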
Potency means the concentration at half of the fitted maximal effect; tags describe the fitted curve by direction and shape.

SMILES | Potency | activation, negative = inhibition
CCCCSc1nnc(-c2c[nH]c3ccccc23)n1C | inconclusive [activator, single point] | 
COC(=O)c1ccc(CN(C)S(=O)(=O)c2cccs2)cc1 | inconclusive [activator, single point] | 
CCOC(=O)c1[nH]c(CN2CCN(c3ccc(OC)cc3)CC2)c(C(=O)OCC)c1C |  | inactive: 0.607%
Cc1ccccc1NCc1nc2ccccc2n1C | active: 2 µM | 
Oc1[nH]c2ccccc2c1N=Nc1ccccc1 | inconclusive [activator, single point] | 
CC(=O)C(Sc1nccc(-c2cccs2)n1)C(C)=O | inconclusive [activator, single point] | 
CC(=O)Nc1ccc(NC(=O)c2ccc(-c3ccccc3Cl)o2)cc1 | inconclusive [activator, single point] | 
COC(=O)C(Cc1ccc(OC(=O)c2ccc(C)cc2)cc1)N1Cc2ccccc2C1=O (centres undefined) | inconclusive [activator, single point] | 
O=C(Nc1ccc2c(c1)C(=O)NC2=O)c1ccc2ncsc2c1 | inconclusive [activator, partial curve] | 
COc1ccc(C2C(C#N)=C(N)N3C(=C2C#N)Sc2ccccc23)cc1 (centres undefined) | inconclusive [activator, partial curve] | 
CCOC(=O)C(C)n1cnc2c(cnn2-c2ccc(Cl)cc2)c1=O (centres undefined) | inconclusive [activator, partial curve] | 
O=C(NCCc1ccccc1)C(=O)c1c[nH]c2ccccc12 | inconclusive [activator, partial curve] | 
O=C1NCCN/C1=C\C(=O)c1ccc(F)cc1 | inconclusive [activator, partial curve, poor fit] | 
Cn1ccnc1SCC(=O)c1cccc(C(F)(F)F)c1 | active: 3.98 µM | 
Cc1ccccc1Nc1nn2c(=O)c3ccccc3nc2s1 | inconclusive [activator, single point] | 
Cn1nnc2cc(C(=O)Nc3ccc(Cl)cc3)ccc21 | active: 3.55 µM | 
O=C(CN1C(=O)NC2(CCCCC2)C1=O)NCc1ccc2c(c1)OCO2 |  | inactive: 3.02%
COc1ccc(-c2csc(Nc3ccc(O)cc3)n2)cc1 | inconclusive [activator, single point] | 
CCOC(=O)N1CCN(C(=O)c2cc(COc3ccc(OC)cc3Cl)on2)CC1 | inconclusive [activator, single point] | 
COc1ccccc1-n1cnc2sc(-c3ccccc3)cc2c1=O | active: 2.82 µM | 
NS(=O)(=O)c1ccc(NC(=O)/C=C/c2cccs2)cc1 |  | inactive: 0.9%
CSc1ccccc1C(=O)N1CCCC(CCC(=O)NCc2ccc(F)c(F)c2)C1 (centres undefined) |  | inactive: 0.0535%
Nc1ccc(OCc2ccccc2)cc1 | inconclusive [activator, single point] | 
CN(C)C(=O)CSc1nc2ccc(C(=O)c3ccccc3)cc2[nH]1 |  | inactive: 16.1%
O=C(NCCc1ccccc1)c1cnc2n(c1=O)CCS2 | active: 2.24 µM | 
O=C(Cc1cccs1)N/N=C/C=C/c1ccccc1[N+](=O)[O-] | inconclusive [activator, partial curve, poor fit] | 
Cc1cc2oc(C(=O)Nc3nonc3C)c(C)c2cc1C | active: 3.98 µM | 

SMILES | Potency | activation, negative = inhibition
O=C(N/N=C/c1ccccn1)c1c[nH]c2ccccc12 | active: 2.82 µM | 
CSc1ccccc1NC(=O)COC(=O)Cn1cc(C(F)(F)F)ccc1=O |  | inactive: -13.6%
N/C(=N\c1nc2ccccc2o1)NC(=O)c1ccccc1Br | inconclusive [activator, single point] | 
O=C1NC(=Nc2ccc3ccccc3c2)S/C1=C/c1ccco1 | inconclusive [activator, single point] | 
CCn1c(SCC(=O)Nc2ccc3c(c2)OCO3)nnc1C1CC1 |  | inactive: -4.3%
N/C(=N\OC(=O)COc1ccccc1)c1ccc(Cl)cc1 |  | inactive: -0.115%
O=C(C1CC(=O)N(C2CCCC2)C1)N1CCN(c2cccc(C(F)(F)F)c2)CC1 (centres undefined) |  | inactive: -9.77%
O=C(NC1CCCCC1)C(=S)NC1CCCCC1 | active: 3.55 µM | 
Cc1ccc(NC(=O)c2sc(N)nc2C)cc1 | active: 2.24 µM | 
COc1cccc(OCc2cc(C(=O)NCc3ccc4c(c3)OCO4)no2)c1 | inconclusive [activator, single point] | 
Cc1ccccc1-c1nc2sc3c(c2c(=O)o1)CCC3 |  | inactive: 3.61%
Cc1nn2c(N)c(-c3ccccc3)cnc2c1-c1ccc(Cl)cc1 | active: 3.55 µM | 
COC(=O)c1ccc(C(=O)OC)c(NC(=O)Nc2ccc3c(c2)OCO3)c1 | inconclusive [activator, partial curve] | 
N#Cc1ccccc1NC(=O)c1ccc2c(Cl)c3c(nc2c1)CCCC3 | active: 3.55 µM | 
COc1ccc2oc(C(=O)NCCc3ccccc3)c(C)c2c1 | inconclusive [activator, partial curve] | 
C/C(=C\C(=O)c1cccnc1)Nc1ccc(O)cc1 | inconclusive [activator, single point] | 
FC(F)(F)c1ccc(N/N=C/c2cccnc2)nc1 | inconclusive [activator, partial curve] | 
Cc1ccc2oc(-c3cccc(NC(=S)NC(=O)/C=C/c4ccco4)c3)nc2c1 | inconclusive [activator, partial curve] | 
Cc1ccc(C)c(N2N=C(C(=O)OCC(=O)N(C)c3ccccc3)CCC2=O)c1 |  | inactive: -2.01%
C/C(=N\Nc1ccccn1)c1ccc(C(C)C)cc1 | inconclusive [activator, partial curve] | 
CN(C)c1ccc(/C=C/C(=O)c2ccc3c(c2)OCO3)cc1 | inconclusive [activator, single point] | 
CCS(=O)(=O)N1CCC(C(=O)Oc2ccc(Cl)cc2)CC1 |  | inactive: -1.9%
Cc1cc(C(=O)OC2CCOC2=O)c2ccccc2n1 (centres undefined) |  | inactive: -0.919%
CCOC(=O)C(Cc1ccccc1)C(=O)NCc1cccnc1 (centres undefined) |  | inactive: 15.4%
O=C(COc1ccccc1)n1nc(-c2ccc(Cl)cc2)nc1NCc1ccco1 | inconclusive [activator, partial curve] | 
Cc1ccc(NC(=O)COC(=O)c2ccc(Cl)nc2)cc1S(=O)(=O)N1CCCCC1 |  | inactive: 3.2%
Cc1sc2nc(SCC(=O)Nc3ccccc3F)[nH]c(=O)c2c1C |  | inactive: -0.104%

SMILES | Potency | activation, negative = inhibition
N/C(=N\OC(=O)c1ccc2ccccc2c1)c1ccccn1 | inconclusive [activator, partial curve, poor fit] | 
CCN1CCN(c2cc3c(nn2)Oc2ccccc2N3C)CC1 | inconclusive [activator, single point] | 
O=[N+]([O-])c1ccccc1NCCOc1ccccc1 | inconclusive [activator, single point] | 
C/C(=N\NC(=O)c1cccc(N2CCCC2=O)c1)c1ccc(N)cc1 | inconclusive [activator, single point] | 
CN(C)c1ccc(/C=N/NC(=O)c2ccccn2)cc1 | active: 0.126 µM | 
COc1ccc(NC(=O)c2oc3ccccc3c2NC(=O)C2CCCO2)cc1OC (centres undefined) | inconclusive [activator, partial curve] | 
COc1ccccc1C(=O)Nc1nnc(-c2ccco2)s1 | inconclusive [activator, single point] | 
Cc1ccccc1C(=O)Nc1cccc(-c2ccc(N3CCOCC3)nn2)c1 | active: 3.16 µM | 
O=C(/C=C/c1cccs1)N1CCN(c2ccccc2)CC1 | inconclusive [activator, single point] | 
CCN1C(=O)/C(=C/C=C2/SCCN2C)SC1=S | active: 0.447 µM | 
COc1ccc(C(=O)N2C(=O)c3ccc(N)cc3C2=O)cc1 | inconclusive [activator, partial curve] | 
CO/N=C/NC(=O)c1c(OC)ccnc1Oc1ccc(Cl)cc1 | inconclusive [activator, single point] | 
CCSc1nsc(NC(=O)Nc2cccc(F)c2)n1 |  | inactive: -23%
Cc1ccc(-c2nnc(SCC#CCOC(=O)c3ccco3)o2)cc1 | inconclusive [activator, single point] | 
Cc1ccc(NC(=O)c2cc(=O)c3ccccc3o2)cc1 | inconclusive [activator, partial curve] | 
Cc1cccc(N=Nc2c(C)nn(-c3ccccc3)c2N)c1C | inconclusive [activator, single point] | 
Cc1nc(-c2cc(-c3ccc(Cl)cc3)no2)cs1 | active: 0.562 µM | 
Cc1ccc(C)c(C(=O)CN2C(=O)c3ccccc3S2(=O)=O)c1 | inconclusive [activator, partial curve] | 
Cc1nc2ccc(NC(=O)NCCO)cc2s1 | inconclusive [activator, single point] | 
COc1ccc(Nc2oc(-c3cccs3)nc2C#N)cc1 | active: 3.16 µM | 
COc1ccc(C(=O)NCCOc2ccccc2Cl)c(OC)c1OC | active: 3.16 µM | 
CC(C)(C)C(=O)N/C(N)=N/c1nc2ccccc2o1 | active: 0.447 µM | 
N/C(=N\OC(=O)c1ccc(Cl)cc1)c1ccn[nH]1 | active: 1.58 µM | 
COc1cccc(OCc2cc(C(=O)N3CCN(c4ccccc4OC)CC3)no2)c1 | inconclusive [activator, single point] | 
Cc1ccsc1/C=C/C1=Cc2c(sc(NC(=O)CSc3n[nH]c(N)n3)c2C#N)C(C)(C)C1 |  | inactive: -1.41%
